Test results as given in PubChem BioAssay (NCATS).
The shares of active, inactive and inconclusive entries below differ from those in the screen. For part of these data: Potencies of inconclusive entries are left out as doubtful fits. The source made the active and inactive calls. Unless noted, calls come from the whole dose curve; as a rule, active = well fitted curve in the direction sought with a large enough effect; inconclusive = small, poorly fitted or top-dose-only effect, or another doubt; inactive = no such curve, though single readings can be large; an effect the other way counts as inactive or inconclusive.

Key:
[1] = Cell Viability - Hek293 (AID 427;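 active = compounds whose dose-response curve shows a full or clear partial loss of cell viability, called from curve shape rather than a numeric limit; inconclusive = weak partial curves or an effect only at the top dose; inactive = no dose-dependent loss of viability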;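 note: potency is the fitted concentration of half-maximal effect; cells exposed to compound for 40 hours at 37 °C before reading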); settings: qHTS
Outline: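 Luminescent ATP read-out (CellTiter-Glo, 20 min RT) after 40 hr compound exposure at 37 °C in complete medium. Signal normalized to DMSO (basal) and 100 uM tamoxifen (100% inhibition); concentration-response fitted with the standard Hill equation to give AC50.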

[2] = Cell Viability - SK-N-SH (AID 435; calls by dose curve;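 note: potency is the fitted concentration of half-maximal effect; compound exposure lasted 40 h at 37 °C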); settings: SK-N-SH neuroblastoma cell viability qHTS
Outline: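 Luminescent ATP signal served as the viability read-out after 40 hours of compound treatment of human neuroblastoma SK-N-SH cells. Concentration-response data, scaled between DMSO and 100 uM tamoxifen, gave AC50 values by standard Hill modeling.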

[3] = Cell Viability - NIH 3T3 (AID 541); settings: NIH 3T3 cell viability, qHTS; activity change, negative = cytotoxicity: at 92.2 µM (top of the series);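 note: plate controls were DMSO alone for no effect and tamoxifen positive control for full effect; nearly all actives have a fitted effect of over 25% in size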
Outline: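 Mouse NIH 3T3 fibroblasts, 1000 cells/well, rested 5 hr at 37 °C, then exposed to compound for 40 hr at 37 °C in complete medium. Viability read as intracellular ATP by CellTiter-Glo luminescence; AC50 from Hill-equation fits of concentration-response data.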

[4] = Cell Viability - HUV-EC-C (AID 542); settings: HUV-EC-C endothelial cell viability, qHTS; series mostly up to 92.2 µM; note: potency is the fitted concentration of half-maximal effect; nearly all actives have a fitted effect of over 35% in size
Outline: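 HUV-EC-C human vascular endothelial cells, 1000/well, exposed to compound for 40 hr at 37 °C in complete medium. Intracellular ATP was read by CellTiter-Glo luminescence. AC50 came from Hill-equation fits of concentration-response data.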

[5] = Cell Viability - H-4-II-E (AID 543); settings: H-4-II-E rat hepatoma viability; series mostly up to 92.2 µM; note: potency is the fitted concentration of half-maximal effect; nearly all actives have a fitted effect of over 35% in size
Outline: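 Rat hepatoma H-4-II-E cells, 1500 per well, treated 40 h at 37 °C in complete medium. Cellular ATP read by CellTiter-Glo luminescence; AC50 from Hill fits of concentration-response.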

[6] = Cell Viability - Renal Proximal Tubule (AID 545); settings: renal proximal tubule cells viability, primary cells of rat origin; activity change, negative = cytotoxicity: at 91.7 µM (top of the series); note: nearly all actives have a fitted effect of over 40% in size
Outline: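 Luminescent ATP signal (CellTiter-Glo) served as the viability read-out after 40 hr compound exposure of freshly isolated rat proximal tubule cells at 37 °C. Concentration-dependent ATP loss was fitted with the Hill equation to give AC50.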

[7] = Cellular Toxicity (caspase-3) Jurkat (AID 655); settings: Jurkat caspase-3 activation, luminescence; caspase-3 activation: at 92.2 µM (top of the series), DMSO = 0%, tamoxifen = 100%;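 note: potency is the fitted concentration of half-maximal effect; cells exposed to compound for 16 h at 37 °C before reading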
Outline: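 5000 Jurkat cells/well; compound 16 hr, 37 °C; Caspase-Glo 3/7 added, 20 min RT; luminescence read. Norm: DMSO = 0%, tamoxifen 100 uM = 100%. AC50, Hill model.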

[8] = Cellular Toxicity (caspase-3) SHSY5Y (AID 657); settings: SH-SY5Y caspase-3 activation; series mostly up to 91.7 µM; note: potency is the fitted concentration of half-maximal effect
Outline: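 qHTS, SH-SY5Y, 1500 cells/well, 5 h pre-incubation 37 °C; compound 16 h 37 °C; Caspase-Glo 3/7 1 h RT; luminescence. Norm.: DMSO = 0, 10 uM staurosporine = 100%. Hill fit → AC50.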

[9] = Cellular Toxicity (caspase-3) Mesangial (AID 660); settings: mesangial cells, normalized: DMSO 0%, 100 µM tamoxifen 100%; at 91.7 µM (top of the series);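 note: combined caspase 3 and 7 activity read by Caspase-Glo luminescence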
Outline: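 Human renal glomerular mesangial cells, 1000/well, 5 h at 37 C before 16 h compound treatment. Caspase-Glo 3/7 luminescence after 20 min; normalized to DMSO and 100 uM tamoxifen, AC50 from Hill fit.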

[10] = Cellular Toxicity (caspase-3) SK-N-SH (AID 661); settings: SK-N-SH caspase-3 activation, qHTS; caspase-3 activation: at 91.7 µM (top of the series), DMSO as zero, staurosporine as full;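 note: 0% = DMSO basal and 100% = 10 µM staurosporine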
Outline: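 Human SK-N-SH neuroblastoma cells, 1500/well, were exposed to compounds for 16 hours at 37 °C. Caspase-Glo 3/7 luminescence was normalized to DMSO (basal) and 10 uM staurosporine (100%), and AC50 came from a Hill fit.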

[11] = Cellular Toxicity (caspase-3) H-4-II-E (AID 663); settings: H-4-II-E rat hepatoma; Potency: caspase-3 activation; caspase-3 activation: at 92.2 µM (top of the series), scaled: DMSO 0%, 100 µM tamoxifen 100%;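 note: cells exposed to compound for 16 hr before readout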
Outline: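 Rat hepatoma H-4-II-E cells (1500/well) plated 5 hr, then exposed to compound titrations for 16 hr at 37 °C. Caspase-Glo 3/7 luminescence read after 20 min at RT; data normalized to DMSO and 100 uM tamoxifen, AC50 from Hill fits.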

[12] = Cellular Toxicity (caspase-3) Hek293 (AID 664); settings: HEK293 caspase-3 activation, DMSO = 0%, 100 µM tamoxifen = 100%; at 92.2 µM (top of the series);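 note: cells exposed to compound for 16 h at 37 °C before readout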
Outline: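 HEK293 cells in complete medium treated 16 h at 37 °C, then Caspase-Glo 3/7 luminescence read after 20 min at room temperature. Normalized to DMSO and 100 uM tamoxifen; AC50 from Hill fit of concentration-response.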

[13] = Cell Viability - LYMP2-001 (AID 921); settings: LYMP2-001 lymphoblastoid cell viability; series mostly up to 92.2 µM; note: potency is the fitted concentration of half-maximal effect; nearly all actives have a fitted effect of over 70% in size
Outline: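 Steps: seed 2500 lymphoblastoid cells/well; 5 hr, 37 C; add compound; 24 hr, 37 C; CellTiter-Glo reagent, 30 min room temperature; read luminescence. Concentration-response modeled by Hill equation for AC50.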

[14] = MultiTox-Fluor Cytotoxicity Assay - LYMP1-001 - Live Cells (AID 947); settings: LYMP1-001 lymphoblastoid cells, live-cell protease fluorescence viability; series mostly up to 92.2 µM; note: potency is the fitted concentration of half-maximal effect
[15] = MultiTox-Fluor Cytotoxicity Assay - LYMP1-002 - Live Cells (AID 955); settings: LYMP1-002 lymphoblastoid live-cell protease fluorescence viability; series mostly up to 46.1 µM; note: potency is the fitted concentration of half-maximal effect
Outline: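 Human lymphoblastoid LYMP1-002 cells, 2500/well, treated 16 h at 37 C in complete medium. Live-cell protease activity via GF-AFC fluorescence (Ex/Em 405/510) after 60 min reagent incubation; AC50 from Hill fits.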

[16] = MultiTox-Fluor Cytotoxicity Assay - LYMP1-002 - Dead Cells (AID 960); settings: LYMP1-002 lymphoblastoid cells, dead-cell protease fluorescence; cytotoxicity (dead cells): at 46.1 µM (top of the series); note: potency is the fitted concentration of half-maximal effect; nearly all actives have a fitted effect of over 60% in size
Outline: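 Human lymphoblastoid LYMP1-002 cells, 2500/well, treated 16 h at 37 C; dead-cell protease cleavage of bis-AAF-R110 read by fluorescence (485/520); normalized to DMSO and 15 uM tetraoctylammonium bromide; AC50 from Hill fit.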

[17] = MultiTox-Fluor Cytotoxicity Assay - LYMP1-003 - Dead Cells (AID 961); settings: LYMP1-003 lymphoblastoid cells, dead-cell protease fluorescence; series mostly up to 92.2 µM; note: potency is the fitted concentration of half-maximal effect; nearly all actives have a fitted effect of over 70% in size
Outline: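 Human lymphoblastoid LYMP1-003 cells (2500/well) were treated with compounds for 16 hr at 37 C in complete medium. Dead-cell protease release was read by bis-AAF-R110 fluorescence (Ex/Em 485/520). AC50 came from Hill fits, normalized to DMSO and 15 uM tetraoctylammonium bromide.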

[18] = Cell Viability - LYMP1-003 - Assay at 24 hr (AID 963); settings: LYMP1-003 lymphoblastoid cell viability; series mostly up to 92.2 µM; note: potency is the fitted concentration of half-maximal effect
Outline: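 Human lymphoblastoid LYMP1-003 cells, 2500/well, treated 24 h at 37 C in complete medium. Viability read as intracellular ATP by CellTiter-Glo luminescence after 30 min at room temperature; AC50 from Hill-equation fits of qHTS concentration-response.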

[19] = Cell Viability - LYMP1-003 - Assay at 40 hr (AID 964); settings: LYMP1-003 lymphoblastoid viability; series mostly up to 92.2 µM; note: potency is the fitted concentration of half-maximal effect; nearly all actives have a fitted effect of over 60% in size
Outline: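 LYMP1-003 human lymphoblastoid cells, 2500/well, preincubated 5 h at 37 C, then treated with compound for 40 h at 37 C. Intracellular ATP read by CellTiter-Glo luminescence after 30 min at room temperature; AC50 from Hill-equation fits.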

[20] = Cell Viability - LYMP2-004 (AID 966); settings: LYMP2-004 lymphoblastoid cell viability, qHTS; series mostly up to 92.2 µM; note: potency is the fitted concentration of half-maximal effect; nearly all actives have a fitted effect of over 65% in size
Outline: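 Lymphoblastoid LYMP2-004 cells, 2500 per well, were preincubated for 5 hr and then treated with compound for 24 h at 37 C in complete medium. Viability was read as cellular ATP by CellTiter-Glo luminescence, and AC50 values were taken from Hill fits to concentration-response data.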

[21] = Cell Viability - LYMP2-005 (AID 967); settings: LYMP2-005 lymphoblastoid cell viability; series mostly up to 92.2 µM; note: potency is the fitted concentration of half-maximal effect
Outline: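 Acute cytotoxicity is scored as a concentration-dependent drop in intracellular ATP in human lymphoblastoid LYMP2-005 cells after 24 h compound treatment. ATP is quantified by luciferase luminescence, and AC50 is derived by Hill-equation modelling.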

[22] = Cell Viability - LYMP2-009 (AID 968); settings: LYMP2-009 lymphoblastoid cell viability; series mostly up to 92.2 µM; note: potency is the fitted concentration of half-maximal effect; nearly all actives have a fitted effect of over 55% in size
[23] = Cell Viability - LYMP2-011 (AID 969); settings: LYMP2-011 lymphoblastoid cells viability; series mostly up to 92.2 µM; note: potency is the fitted concentration of half-maximal effect; nearly all actives have a fitted effect of over 60% in size
Outline: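 2500 cells/well in complete medium, compound-treated 24 h at 37 C. Viability read as intracellular ATP by CellTiter-Glo luminescence after 30 min at room temperature. AC50 from Hill fits of qHTS concentration-response data.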

[24] = Cell Viability - LYMP2-025 (AID 976); settings: LYMP2-025 lymphoblastoid cell viability; activity change, negative = cytotoxicity: at 92.2 µM (top of the series); note: potency is the fitted concentration of half-maximal effect
Outline: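 Human lymphoblastoid LYMP2-025 cells, 2500/well, exposed 24 h at 37 C in complete medium in 1536-well qHTS. Viability as cellular ATP by CellTiter-Glo luminescence; AC50 from Hill fits of concentration-response data.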

[25] = Cell Viability - LYMP2-002 (AID 977); settings: LYMP2-002 lymphoblastoid cell viability, qHTS; activity change, negative = cytotoxic: at 92.2 µM (top of the series);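 note: potency is the fitted concentration of half-maximal effect; compound exposure lasted 24 h at 37 °C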
Outline: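 Human lymphoblastoid LYMP2-002 cells, 2500 per well, exposed to compounds for 24 h at 37 C in complete medium; viability read as intracellular ATP by CellTiter-Glo luminescence, AC50 from Hill fits.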

[26] = Cell Viability - LYMP2-006 (AID 978); settings: LYMP2-006 lymphoblastoid cell viability, qHTS; series mostly up to 92.2 µM; note: potency is the fitted concentration of half-maximal effect; nearly all actives have a fitted effect of over 60% in size
Outline: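 Cells are seeded at 2500 per well and rested 5 hr at 37 C. Compounds are added across a concentration series for 24 hr at 37 C, after which ATP is quantified by luciferase luminescence.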

[27] = Cell Viability - LYMP2-016 (AID 984); settings: LYMP2-016 lymphoblastoid cell viability, qHTS; activity change, negative = cytotoxicity: at 92.2 µM (top of the series); note: potency is the fitted concentration of half-maximal effect; nearly all actives have a fitted effect of over 55% in size
Outline: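 Cells were seeded at 2500 per well and rested 5 hr before a 24 hr compound exposure at 37 C. Viability was then gauged as cellular ATP by luciferase luminescence, with AC50 values fitted to the Hill equation.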

[28] = Cell Viability - LYMP2-018 (AID 985); settings: LYMP2-018 lymphoblastoid cells, viability (qHTS); series mostly up to 92.2 µM; note: potency is the fitted concentration of half-maximal effect; nearly all actives have a fitted effect of over 50% in size
Outline: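 Human lymphoblastoid LYMP2-018 cells, 2500/well, settled 5 hr at 37 C then exposed to compound 24 hr at 37 C; intracellular ATP measured by CellTiter-Glo luminescence. AC50 from Hill-equation concentration-response fits.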

[29] = Cell Viability - LYMP2-022 (AID 987); settings: LYMP2-022 lymphoblastoid cell viability; series mostly up to 92.2 µM; note: potency is the fitted concentration of half-maximal effect; nearly all actives have a fitted effect of over 55% in size
Outline: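 LYMP2-022 lymphoblastoid cells (2500/well, complete medium) were treated with compounds for 24 hours at 37 C; intracellular ATP was then read by CellTiter-Glo luminescence after 30 min at room temperature. AC50 values were derived from Hill-equation fits.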

[30] = Cell Viability - LYMP2-024 (AID 988); settings: LYMP2-024 lymphoblastoid cell viability; activity change, negative = cytotoxicity: at 92.2 µM (top of the series)
Outline: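 Human lymphoblastoid LYMP2-024 cells (2500/well) rested 5 hr, then treated with compound for 24 hr at 37 C in complete medium. Viability was measured as intracellular ATP by CellTiter-Glo luminescence. AC50 values came from Hill-equation fits.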
Tags give direction and shape of the fitted curve.

C=C1CC[C@H](O)C/C1=C/C=C1\CCC[C@]2(C)[C@@H]([C@H](C)CCCC(C)C)CC[C@@H]12
Potency [1]: inconclusive [partial curve] | Potency [2]: active: 47.1 µM | activity change, negative = cytotoxicity [3]: inconclusive: -64.3% | Potency [4]: active: 39.8 µM | Potency [5]: active: 39.8 µM | activity change, negative = cytotoxicity [6]: active: -97.9% | Potency [7]: active: 31.6 µM | Potency [8]: active: 31.6 µM | caspase-3 activation [9]: inconclusive: 183% | caspase-3 activation [10]: inconclusive: 58.5% | caspase-3 activation [11]: inconclusive: 83% | caspase-3 activation [12]: active: 173% | Potency [13]: active: 39.8 µM | Potency [14]: inconclusive [cytotoxic, partial curve, poor fit] | Potency [15]: inconclusive [cytotoxic, single point] | Potency [16]: active: 31.6 µM | Potency [17]: active: 39.8 µM | Potency [18]: inconclusive [cytotoxic, partial curve] | Potency [19]: active: 39.8 µM | Potency [20]: active: 39.8 µM | Potency [21]: active: 39.8 µM | Potency [22]: active: 50.1 µM | Potency [23]: active: 50.1 µM | Potency [24]: inconclusive [cytotoxic, partial curve, poor fit] | Potency [25]: inconclusive [cytotoxic, partial curve, poor fit] | Potency [26]: inconclusive [cytotoxic, partial curve, poor fit] | Potency [27]: inconclusive [cytotoxic, partial curve] | Potency [28]: active: 39.8 µM | Potency [29]: active: 31.6 µM | Potency [30]: active: 39.8 µM
